Data taken from article PMC4336329 (PLoS ONE, 2015).
Out of some 310,000 compounds screened, about 14,000 (4.5%) showed an effect of 50% or more. Effects have a minus sign here. Some of the results follow.

target: human ether-à-go-go-related gene (hERG) potassium channel (human, UniProt Q12809); test: primary screen, population patch clamp on CHO cells stably expressing hERG
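Also: peak tail current of the secondary pulse compared with the same well before compound.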

Chain of human ether-à-go-go-related gene (hERG) potassium channel (Q12809 whole entry, looked up): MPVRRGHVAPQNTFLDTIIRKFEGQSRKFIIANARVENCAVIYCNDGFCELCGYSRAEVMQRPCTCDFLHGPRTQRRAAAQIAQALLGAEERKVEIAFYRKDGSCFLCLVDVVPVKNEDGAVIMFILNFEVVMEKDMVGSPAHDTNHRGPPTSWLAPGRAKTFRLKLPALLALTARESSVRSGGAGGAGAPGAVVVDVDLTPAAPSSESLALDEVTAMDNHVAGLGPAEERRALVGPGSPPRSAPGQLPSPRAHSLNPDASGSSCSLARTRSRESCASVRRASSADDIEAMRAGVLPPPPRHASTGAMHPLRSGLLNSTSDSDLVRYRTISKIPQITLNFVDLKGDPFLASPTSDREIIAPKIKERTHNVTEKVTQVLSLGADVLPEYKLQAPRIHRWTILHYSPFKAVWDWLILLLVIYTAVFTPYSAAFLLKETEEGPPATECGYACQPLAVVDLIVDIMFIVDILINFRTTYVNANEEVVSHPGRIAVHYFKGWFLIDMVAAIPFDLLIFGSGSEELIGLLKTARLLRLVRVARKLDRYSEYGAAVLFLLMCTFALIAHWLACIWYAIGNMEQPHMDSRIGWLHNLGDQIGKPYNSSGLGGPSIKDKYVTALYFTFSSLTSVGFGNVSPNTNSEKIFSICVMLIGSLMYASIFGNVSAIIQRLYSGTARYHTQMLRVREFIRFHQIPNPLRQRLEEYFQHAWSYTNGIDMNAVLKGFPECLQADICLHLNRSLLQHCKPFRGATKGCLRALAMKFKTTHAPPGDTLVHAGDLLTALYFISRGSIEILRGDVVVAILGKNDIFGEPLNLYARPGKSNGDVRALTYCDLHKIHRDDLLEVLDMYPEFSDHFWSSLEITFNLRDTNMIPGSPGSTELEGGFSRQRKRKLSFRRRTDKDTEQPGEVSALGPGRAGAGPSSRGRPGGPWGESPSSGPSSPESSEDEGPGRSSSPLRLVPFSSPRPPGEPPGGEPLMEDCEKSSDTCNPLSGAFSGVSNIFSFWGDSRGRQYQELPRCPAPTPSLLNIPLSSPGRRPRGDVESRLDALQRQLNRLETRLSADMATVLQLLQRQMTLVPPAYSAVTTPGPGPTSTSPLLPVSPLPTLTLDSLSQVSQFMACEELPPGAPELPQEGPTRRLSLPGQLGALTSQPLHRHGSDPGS

SMILES | hERG current change (%, negative = inhibition) at 10uM [%]
CCN(CC)CCCN(Cc1cc2cc3c(cc2[nH]c1=O)OCO3)C(=S)Nc1ccccc1 | -45.9
COc1ccc(S(=O)(=O)N2CCC(C)CC2)cc1N(C)S(=O)(=O)c1ccccc1 | -2.12
CN(C)S(=O)(=O)N1CCC(n2nccc2NC(=O)CCCc2ccccc2)CC1 | 5.1
Cc1cc(OC(=O)CCCNC(=O)OC(C)(C)C)c2c3c(c(=O)oc2c1)CCC3 | -9.18
COC(=O)c1c(C)[nH]c(C(=O)CC#N)c1C | 13.7
COC(=O)COc1ccc(/C=C2/SC(=O)N(CC(=O)N3CCCC3)C2=O)cc1Br | 9.14
O=C(CN1C(=O)NC2(CCc3ccccc32)C1=O)NCC(F)(F)F (stereo not drawn) | 2.18
COc1ccc(C(=O)C2CCCN(C(=O)c3ccccc3C(C)=O)C2)cc1F (stereo not drawn) | -14.8
CCc1ccc(Cc2cnc(NC(=O)C3=NCCN3)s2)cc1 | 1.57
CCOC(=O)Cc1csc(N/C(=N/S(=O)(=O)c2ccc(F)cc2F)c2ccccc2)n1 | -11.7
Cc1ccc(-n2c(-c3ccco3)n[nH]c2=S)cc1 | 24
O=C(CS(=O)(=O)c1ccccc1)Nc1nc2ccccc2s1 | -10.8
COc1ccccc1NC(=O)CSc1nnc(CNC(=O)c2ccco2)o1 | 15.5
COC(=O)COc1cccc(NC(=O)c2ccc(C)cc2)c1 | 5.91
Cc1cccc(NC(=O)C2CCN(C(=O)c3ccco3)CC2)c1C | 29.9
CN1CCN(C(=O)COc2ccc3ccccc3c2Br)CC1 | -10.4
COc1ccc(CSc2nnnn2-c2ccc(O)cc2)cc1F | -17.7
Cc1cccc(OCC(=O)NC(=S)Nc2ccccc2N2CCOCC2)c1 | 18.8
Cc1ccc(N=C(NO)c2nonc2N)c(C)c1 | 12.1

SMILES | hERG current change (%, negative = inhibition) at 10uM [%]
CN1CCN(NC(=O)Nc2cc(Cl)cc(Cl)c2)CC1 | -9.67
CCCn1cnc2cc(NC(=O)c3ccco3)ccc21 | -3.81
CCN1C(=O)C(=O)N(CC(=O)N(C)CC(=O)Nc2ccccc2Cl)C1=O | 4.13
Cc1[nH]c(=S)c(C#N)c(-c2ccccc2)c1C(=O)Nc1ccccc1 | 19.1
CCN(c1ccccc1)S(=O)(=O)c1ccc(OC)c(NC(=O)Cc2ccc(F)cc2)c1 | -25.1
CCOC(=O)C1C(=O)CC(C)(O)C(C(=O)OCC)C1c1cccs1 (stereo not drawn) | 24
CCCCC1=CC2=CC(=O)C(C)(OC(=O)c3cnc4ccccc4n3)C(=O)C2=CO1 (stereo not drawn) | 27.1
CC(C)c1ccccc1-n1c(SCC(=O)N2CCc3ccccc3C2)nc2ccccc2c1=O | 6.46
CCc1[nH]c(=O)[nH]c1C(C)S(=O)(=O)c1ccc(C)cc1 (stereo not drawn) | 16.9
C=CCSc1nc(-c2ccccc2)c2cc(Cl)ccc2n1 | 1.51
O=C(/C=C\c1ccc2c(c1)OCO2)NC1(C(=O)Nc2ccc3c(c2)OCO3)CCCCC1 | 0.49
Cc1ccc(NC(=O)c2ccc3c(=O)n4c(nc3c2)CCCCC4)nc1 | -60.4
CC1(CC(=O)N/N=C/c2cc(Br)c(O)cc2O)OCCO1 | 21.4
CCOc1ccc(S(=O)(=O)c2cn(C)c3cc(OC)c(OC)cc3c2=O)cc1 | 1.86
CCOC(=O)N1CCN(C(=O)c2cc(-n3cnnc3)ccc2Cl)CC1 | 0.00508
CCOC(=O)c1c(C)nc2sc3c(=O)n(-c4ccc(C(C)=O)cc4)cnc3c2c1-c1ccc(OC)cc1 | 13.3
CN(C)/C=N/C(=S)Nc1ccc(Cl)cc1 | 5.24
CC1=C(Sc2nc3ccccc3[nH]2)C(=O)NC(C)(C)C1 | 1.71
CCCc1cc(CNC(=O)C2CCC(=O)N(CCc3cccc(F)c3)C2)on1 (stereo not drawn) | -49.6

SMILES | hERG current change (%, negative = inhibition) at 10uM [%]
O=C(Cc1cccs1)N/N=C/C=C\c1ccccc1[N+](=O)[O-] | 13.3
Cc1ccc(C(=O)OCC(=O)c2cc(C)n(CC3CCCO3)c2C)cc1 (stereo not drawn) | -15
O=C(NC1CCCCC1)C1CC(=O)N(c2ccccc2)C1 (stereo not drawn) | 15.6
O=C(/C=C/c1ccc(S(=O)(=O)N2CCOCC2)cc1)NC(=S)Nc1ccc(Cl)cc1Cl | 8.17
CC(=O)Nc1ccc(NC(=O)Nc2ccccc2)cc1 | 10.5
COc1ccc(Cl)cc1-c1nc(SCC(=O)NC(C)C(C)C)n[nH]1 (stereo not drawn) | 5.68
CCOC(=O)CSc1nc2cc(C)ccc2cc1C#N | 1.87
C#Cc1ccc([C@@H]2C=C(C(=O)N3CCN(Cc4ccccc4)CC3)O[C@H](OCCCCO)C2)cc1 | -56
COc1ccccc1C(=O)C1CCCN(C(=O)C2CCCC2)C1 (stereo not drawn) | -6.06
COc1ccc(/C=N/Nc2nc(Nc3ccccc3)nc(N3CCCCC3)n2)cc1OC | 12
C(=N\N1CCN(C(c2ccccc2)c2ccccc2)CC1)/c1ccc2c(c1)OCO2 | 40.8
Cc1ccccc1NS(=O)(=O)c1ccc2[nH]cc(C(=O)NCCCN3CCOCC3)c(=O)c2c1 | 14.5
Cc1n[nH]c(=O)nc1N/N=C/c1cccs1 | 9.67
Cc1cc(/C(N)=N/OC(=O)c2cccc(Cl)c2)no1 | 9.63
Cc1cc(C)c(S(=O)(=O)NCC(c2ccc3c(c2)OCO3)N2CCOCC2)c(C)c1 (stereo not drawn) | -18.1
CN(C)CCOC(=O)C(c1ccccc1)C1(O)CCCC1.Cl (stereo not drawn) | 21.8
CCC(=O)Nc1ccc(C(=O)Nc2cccnc2)cc1 | -0.52
CC(=O)NCCn1c(SCC(=O)NC2CCCCC2)nc2ccccc2c1=O | -8.51
CC1CCN(C(=O)CNC(=O)c2cccc(OC(F)F)c2)CC1 | 6.21
